# In PubChem BioAssay AID1963576 (National Center for Advancing Translational Sciences (NCATS), 2024):
# Screen size: about 46,000 compounds; about 60 (0.1%) were called active. Inconclusive results (about 3%) are left out. Calls come from the whole dose curve; as a rule, active = well fitted inhibition curve with a large enough effect; inconclusive = small, poorly fitted or top-dose-only effect; inactive = no such curve, though single readings can be large or run the other way. This is one part of the list.
# Test: Primary qHTS assay for Inhibitors of ovarian cancer metastasis using an organotypic tumor microenvironment (TME) model.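 For Potency: count of GFP cancer cells still attached after washing and fixation.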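 For activity change, negative = inhibition: plate controls were DMSO wells for no effect and tomatine positive control wells for full effect.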 Note: nearly all actives have a fitted effect of over 65% in size.
# Settings: SKOV3ip1-GFP adhesion/invasion on 3D omental model, fluorescence; series mostly up to 45.8 µM; activity change, negative = inhibition: at the top concentration
# Method in brief: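 Adhesion/invasion was scored as fixed GFP-labeled SKOV3ip1 cell counts (488/509 nm), normalized to DMSO and tomatine controls. Cancer cells in serum-free medium, with four compound doses (0.36-46 umol/L), sat 2 hr at RT then 16 hr at 37 C on a 48 hr fibroblast/mesothelial/ECM culture.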
# Potency is the fitted concentration of half-maximal effect.
Structure (SMILES),outcome,"activity change, negative = inhibition",Potency
CCCCNc1nc2c(-c3cccc(C)c3)nnn2c2ccccc12,inactive,–,–
Cc1ccccc1-c1nnc(SCC(=O)N(C)c2ccccc2)o1,–,inactive: 25.8%,–
COc1cc(C(=O)N2CCNC(=O)C2CC(=O)Nc2ccc(C)c(C)c2)cc(OC)c1OC (stereo not drawn),inactive,–,–
Cc1ccc(S(=O)(=O)Nc2cc3c(C(=O)OCc4ccccc4)c(C)oc3c3ccccc23)c(C)c1,–,inactive: 4.06%,–
Cc1cccc(OCC(=O)Nc2cccc(C(=O)OCc3cc(=O)n4nc(C(C)C)sc4n3)c2)c1,–,inactive: -0.256%,–
CCCN(CCC)C(=O)Cn1c(=O)n(CCCCCC(=O)Nc2ccccc2)c(=O)c2sccc21,–,inactive: -9.79%,–
COc1ccc2c(c1)c1c(c(=O)n(-c3ccccc3C)c(=O)n1CC(N)=O)n2C,–,inactive: 13.6%,–
Cc1ccc(CNC(=O)CCc2c(C)nc3c(-c4ccc(F)cc4)c(C)nn3c2C)cc1,inactive,–,–
COC(=O)c1ccc(NC(=O)Cn2ccn3nc(-c4ccc(OC)cc4)cc3c2=O)cc1,–,inactive: 3.19%,–
Cc1ccc(/C=C/c2onc(C)c2S(=O)(=O)N2CCC(C(=O)Nc3ccc(OC(F)(F)F)cc3)CC2)cc1,–,inactive: -9.33%,–
COc1ccc(NC(=O)CN2C(=O)C(C)(C)c3cc(S(=O)(=O)N4CCCCC4)ccc32)cc1Cl,–,inactive: -3.83%,–
Cc1nn2c3c(cnc2c1-c1ccc(Cl)cc1)C(=O)CC(c1ccc(C(C)C)cc1)C3 (stereo not drawn),inactive,–,–
Cc1c(C(=O)OCc2ccccc2)[nH]c2c1C(=O)CC(c1ccc(N(C)C)cc1)C2 (stereo not drawn),–,inactive: 8.28%,–
CCc1sc(Nc2cccc(Cl)c2)nc1-c1cc2cccc(OC)c2oc1=O,–,inactive: -12%,–
COc1cccc(-n2c(SCC(=O)c3ccccc3)nc3c([nH]c4ccccc43)c2=O)c1,inactive,–,–
O=c1oc2cc(O)ccc2cc1-c1nc(-c2ccc(Cl)c(Cl)c2)cs1,–,inactive: 3.53%,–
CCCn1c(COc2cccc(C)c2)nc2ccccc21,–,inactive: -9.05%,–
COC(=O)C1=C(C)NC(=O)NC1c1cn(-c2ccccc2)nc1-c1ccc(OC)c(Br)c1 (stereo not drawn),inactive,–,–
COc1ccc(-c2ccc3ncc4c(c3c2)n(-c2ccc(N3CCNCC3)c(C(F)(F)F)c2)c(=O)n4C)cn1,–,–,active: 9.35 µM
Cc1ccc(S(=O)(=O)C(CNC(=O)COc2ccccc2)c2cccs2)cc1 (stereo not drawn),inactive,–,–
COc1cccc(NS(=O)(=O)c2ccc3[nH]c4c(c3c2)CCCCCC4)c1,–,inactive: -21.7%,–
Cn1c2c(c(=O)n(C)c1=O)C(c1cccc(O)c1)CC(=O)N2 (stereo not drawn),inactive,–,–
COc1ccc(NC(=O)C(NC(=O)Cc2cccs2)c2ccc(OC)cc2)cc1 (stereo not drawn),–,inactive: -5.15%,–
Cc1cc(Br)cc(C)c1NC(=O)c1cnc2ccccn2c1=O,–,inactive: 4.36%,–

Structure (SMILES),outcome,"activity change, negative = inhibition",Potency
COc1ccc(-c2onc(C)c2C)cc1S(=O)(=O)N1CCc2ccccc21,inactive,–,–
Cc1noc(C)c1S(=O)(=O)Nc1ccc(C(=O)Nc2ccc(C(C)C)cc2)cc1,inactive,–,–
CCOC(=O)c1ccc(NC(=O)CC2Nc3cccc4cccc(c34)NC2=O)cc1 (stereo not drawn),–,inactive: -6.96%,–
CCc1ccc(CN(C(=O)c2ccc(OC)cc2)C2CCS(=O)(=O)C2)cc1 (stereo not drawn),–,inactive: 4.75%,–
CCC12CN3CC(CC)(CN(C1)C3c1cccc(OC)c1O)C2=O (stereo not drawn),–,inactive: -16.5%,–
COc1cc2c(cc1NC(=O)COc1ccc(Br)c(C)c1)oc1ccccc12,–,inactive: -8.07%,–
COc1ccc(-c2nc3ccccc3s2)cc1NC(=O)c1ccc(C#N)cc1F,inactive,–,–
CCn1c(C(=O)NCc2ccc(C)cc2)cc2sc(Cl)cc21,inactive,–,–
Cc1cccc(N2CCN(C(=O)c3cn(C)c4ccc(S(=O)(=O)N(C)C)cc4c3=O)CC2C)c1 (stereo not drawn),–,inactive: 11.9%,–
CCOC(=O)Cn1c(=O)n(-c2ccccc2OC)c2nc(-c3ccccc3)nc(C(N)=O)c21,–,inactive: 25.6%,–
CCc1ccc(CNC(=O)c2ccc(CS(=O)c3ccc(Br)cc3)o2)cc1 (stereo not drawn),inactive,–,–
CCc1nnc(SCC(=O)Nc2ccc(Cl)cc2F)c2cc3occc3n12,–,inactive: 18.3%,–
CCOC(=O)c1c(NC(=O)CCCOc2ccc(C)cc2)sc2c1CCC(C)C2 (stereo not drawn),inactive,–,–
COc1ccc(C2=CC(c3ccccc3Cl)n3nc(-c4ccc(C)cc4)nc3N2)cc1 (stereo not drawn),–,inactive: -2.19%,–
CCc1ccc(-n2c(SCc3nc(-c4cc(OC)ccc4OC)no3)nnc2-c2ccccc2)cc1,–,inactive: 1.69%,–
COc1ccc(-c2c(C)c3ccc(O)c(CN4CCCCC4)c3oc2=O)cc1OC,–,inactive: -5.63%,–
Cc1ccc2nc(N(Cc3cccnc3)C(=O)c3ccco3)sc2c1,inactive,–,–
Cc1nc(SCc2cc(=O)c3cccc(F)c3[nH]2)n[nH]1,–,inactive: -3.7%,–
CCc1ccc(NC(=O)CC2C(=O)NCCN2C(=O)c2ccccc2OC)cc1 (stereo not drawn),inactive,–,–
CCOc1ccc(S(=O)(=O)NCCc2csc3nc(-c4ccc(OC)c(OC)c4)nn23)cc1,–,inactive: 12%,–
COc1cn(CC(=O)Nc2c(C)cc(C)cc2C)c(CN2CCCCC2)cc1=O,inactive,–,–
CC(C)c1ccc(NC(=O)c2ccc3oc(=O)c(S(=O)(=O)c4ccc(F)cc4)cc3c2)cc1,–,inactive: -17%,–
CCOCCc1nn2c(=O)cc(COC(=O)COc3ccc(C)c(C)c3)nc2s1,–,inactive: 5.04%,–
COc1ccc(NC(=O)Cn2ncc3c(C)n(Cc4cccc(Cl)c4)c(C)c3c2=O)cc1,–,inactive: -12.6%,–
